Test results taken from publication PMC4336329 (PLoS ONE, 2015).
The campaign covered roughly 310,000 compounds. About 14,000 (4.5%) showed an effect of 50% or more. Effects have a minus sign here. This is one part of the list.

target: human ether-à-go-go-related gene (hERG) potassium channel (human, UniProt Q12809); assay: primary screen, population patch clamp on CHO cells stably expressing hERG
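Also: peak tail current of the secondary pulse compared with the same well before compound.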

Chain of human ether-à-go-go-related gene (hERG) potassium channel (Q12809 whole entry, looked up): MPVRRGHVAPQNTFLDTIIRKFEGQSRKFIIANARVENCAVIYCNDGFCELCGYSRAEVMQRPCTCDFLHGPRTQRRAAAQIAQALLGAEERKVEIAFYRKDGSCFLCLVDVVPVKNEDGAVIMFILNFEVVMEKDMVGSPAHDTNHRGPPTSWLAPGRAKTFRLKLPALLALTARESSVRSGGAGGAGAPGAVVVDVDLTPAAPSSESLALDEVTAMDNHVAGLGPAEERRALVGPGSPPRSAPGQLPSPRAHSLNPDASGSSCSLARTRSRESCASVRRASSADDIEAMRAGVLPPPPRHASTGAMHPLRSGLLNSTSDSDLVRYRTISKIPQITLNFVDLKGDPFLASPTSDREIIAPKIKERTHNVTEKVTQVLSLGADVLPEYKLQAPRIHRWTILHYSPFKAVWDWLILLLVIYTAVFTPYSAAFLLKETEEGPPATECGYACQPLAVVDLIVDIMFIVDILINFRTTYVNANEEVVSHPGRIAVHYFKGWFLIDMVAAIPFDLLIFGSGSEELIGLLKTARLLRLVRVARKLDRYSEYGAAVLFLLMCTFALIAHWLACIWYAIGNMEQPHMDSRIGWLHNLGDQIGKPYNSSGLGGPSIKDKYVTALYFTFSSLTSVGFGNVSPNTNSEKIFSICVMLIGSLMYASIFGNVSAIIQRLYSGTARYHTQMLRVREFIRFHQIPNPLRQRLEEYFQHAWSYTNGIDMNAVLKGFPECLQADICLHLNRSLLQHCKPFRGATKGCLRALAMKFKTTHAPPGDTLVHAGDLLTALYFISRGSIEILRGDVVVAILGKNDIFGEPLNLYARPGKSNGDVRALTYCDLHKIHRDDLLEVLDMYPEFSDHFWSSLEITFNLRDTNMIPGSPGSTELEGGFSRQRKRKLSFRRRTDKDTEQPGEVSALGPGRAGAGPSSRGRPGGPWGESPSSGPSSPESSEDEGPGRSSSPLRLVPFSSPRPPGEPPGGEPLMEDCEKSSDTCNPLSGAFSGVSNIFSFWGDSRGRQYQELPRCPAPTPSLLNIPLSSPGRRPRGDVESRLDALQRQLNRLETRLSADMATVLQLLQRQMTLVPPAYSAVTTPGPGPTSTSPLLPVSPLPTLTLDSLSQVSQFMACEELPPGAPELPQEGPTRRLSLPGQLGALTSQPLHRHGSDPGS

Compared with `COc1ccc(C(=O)NC(=S)Nc2ccc(N3CCOCC3)cc2)cc1Cl`, `CC(=O)NC(=S)Nc1ccc(NC(=O)COc2ccc(Cl)cc2Cl)cc1` is higher in “hERG current change (%, negative = inhibition) at 10uM” value: 10.6% for the first, 15.7% for the second.

First: COc1ccc(CN2C(=O)c3cccnc3C2=O)cc1S(=O)(=O)N(C)c1cccc(C)c1
Second: COc1cc(S(=O)(=O)Nc2ccccc2)ccc1N=Cc1c(C)[nH]n(-c2ccc(C)cc2)c1=O
The “hERG current change (%, negative = inhibition) at 10uM” value of the first is lower: -35.8% for the first, 7.88% for the second.

Going from `O=C(c1ccc(Cl)c(S(=O)(=O)N2CCCC2)c1)N1CCN(c2ccccc2)CC1` to `CCOC(=O)N1CCN(C(=O)c2ccc(Cl)c(S(=O)(=O)N3CCCC3)c2)CC1`, the “hERG current change (%, negative = inhibition) at 10uM” value rises from -8.69% to 2.38%.

Compared with `Cn1c(=O)c(C(=O)NCCO)c(O)c2ccccc21`, `Cc1noc(C)c1C(=O)OCC(=O)c1c[nH]c2ccccc12` is lower in “hERG current change (%, negative = inhibition) at 10uM” value: 4.01% for the first, 2.44% for the second.

Compared with `CSc1ccccc1NC(=S)N/N=C/c1cccn1Cc1ccc(F)cc1`, `Cc1cc(C)cc(NC(=S)Nc2cccc3ccccc23)c1` is lower in “hERG current change (%, negative = inhibition) at 10uM” value: -6.67% for the first, -14.6% for the second.

Going from `O=C(O)C1C2C=CC(C2)C1C(=O)NCCc1ccncc1` (centres unmarked) to `NC1=NC(=O)CC(C(=O)NCc2ccccc2)S1` (centres unmarked), the “hERG current change (%, negative = inhibition) at 10uM” value falls from 18.4% to 16.8%.

Compared with `O=C(Cc1ccccc1F)NC1CCCN(Cc2ccc(Cl)cc2)C1` (centres unmarked), `O=C(NCCCN1CCOCC1)c1cc(Cl)ccc1OCc1ccccc1` is lower in “hERG current change (%, negative = inhibition) at 10uM” value: -33.7% for the first, -55.7% for the second.

First: CCOC(=O)CN(C(=O)CNC(=O)c1cccs1)C(C(=O)NC1CCCCC1)c1cccs1 (centres unmarked)
Second: CC1CCN(C(=O)CNC(=O)CNC(=O)Cc2ccccc2)CC1
The “hERG current change (%, negative = inhibition) at 10uM” value of the first is lower: -1.88% for the first, 4.9% for the second.

First: O=C(N/N=C/c1cccc(O)c1)c1ccc2c(c1)OCCO2
Second: CC(C)(C)NCC(=O)N/N=C/c1ccc(OCc2ccccc2)cc1
The “hERG current change (%, negative = inhibition) at 10uM” value of the first is higher: 8.19% for the first, -60.5% for the second.

First: CCn1c(CCNC(=O)c2ccc(OC)cc2)nnc1SCc1ccc(Cl)c(Cl)c1
Second: CCn1c(CNc2ccc(OC)cc2)nnc1SCC(=O)Nc1ccc(F)cc1
The “hERG current change (%, negative = inhibition) at 10uM” value of the first is lower: -61.8% for the first, -29.9% for the second.

Going from `COc1ccc(CNC(=O)CN(Cc2ccco2)C(=O)CNS(=O)(=O)c2ccccc2)cc1` to `COc1ccc(S(=O)(=O)NC(CC(=O)NCCc2ccc(OC)c(OC)c2)c2ccco2)cc1` (centres unmarked), the “hERG current change (%, negative = inhibition) at 10uM” value rises from -38.7% to -8.6%.

First: O=c1[nH]c(/C=C/c2ccccn2)nc2ccccc12
Second: Cc1cc(=O)c2ccccc2n1Cc1ccccc1
The “hERG current change (%, negative = inhibition) at 10uM” value of the first is higher: 11.1% for the first, -27.9% for the second.

First: O=C1c2ccccc2C(=O)N1CSc1nnc2c3ccccc3n(CCc3ccccc3)c2n1
Second: Cc1cccn2c(=O)c3cc(C(=O)NCCc4ccccc4)c(=N)n(Cc4ccco4)c3nc12
The “hERG current change (%, negative = inhibition) at 10uM” value of the first is higher: 14.4% for the first, -74% for the second.

Going from `CC(C)C(C)NC(=O)COC(=O)c1cccc(C(=O)OCC(=O)NC(C)C(C)C)n1` (centres unmarked) to `Cc1ccc(S(=O)(=O)NC(CC(C)C)C(=O)NCCCn2nc(C)cc2C)cc1` (centres unmarked), the “hERG current change (%, negative = inhibition) at 10uM” value rises from -2.56% to 0.672%.

Compared with `COc1cc(C(=O)Nc2scc(-c3ccc(Br)cc3)c2C(=O)O)cc(OC)c1OC`, `COc1cc(NC(=O)NCC2CCN(Cc3ccc(C)cc3)CC2)cc(OC)c1OC` is lower in “hERG current change (%, negative = inhibition) at 10uM” value: 20.8% for the first, -0.392% for the second.

First: O=C(CN1CCCCCC1)Nc1ccc(Br)cc1
Second: Cc1ccc(N(CC(=O)NC2CCCCCC2)S(=O)(=O)c2c(C)nn(C)c2C)cc1
The “hERG current change (%, negative = inhibition) at 10uM” value of the first is lower: -32.3% for the first, -21.7% for the second.

Going from `O=S(=O)(c1ccc(-c2nnc(SCc3nnc(-c4ccccc4)o3)o2)cc1)N1CCCC1` to `O=C(OCc1nnc(-c2ccccc2)o1)c1ccc2ccccc2n1`, the “hERG current change (%, negative = inhibition) at 10uM” value rises from 0.461% to 8.19%.

Compared with `O=C(NCC(c1ccco1)N1CCN(c2ccccc2F)CC1)c1cccs1` (centres unmarked), `CCN(CC)C(=O)COc1coc(CN2CCN(c3ccccc3F)CC2)cc1=O` is higher in “hERG current change (%, negative = inhibition) at 10uM” value: -8.98% for the first, 2.56% for the second.

Compared with `CC(=O)c1ccc(O)c(CO)c1`, `C/C(Cc1ccccc1)=N\NC(=O)CNC(=O)c1ccc(Cl)cc1Cl` is lower in “hERG current change (%, negative = inhibition) at 10uM” value: -3.53% for the first, -12.4% for the second.

Going from `Cn1ccnc1SCC(=O)Nc1ccc(Oc2ccccc2)cc1` to `COC(=O)c1nn(-c2ccc(OC)cc2)c(=O)cc1Oc1ccccc1`, the “hERG current change (%, negative = inhibition) at 10uM” value falls from -4.32% to -12.6%.

Compared with `O=C1CC2(CCN(C(=O)c3ccccc3Cl)CC2)Oc2ccccc21`, `CC(NC(=O)c1ccc(N2CCCC2=O)cc1)c1ccccc1` (centres unmarked) is higher in “hERG current change (%, negative = inhibition) at 10uM” value: -72.7% for the first, -5.21% for the second.

First: Cc1cc[n+](Cc2ccccc2)cc1.[O-][Cl+3]([O-])([O-])[O-]
Second: Clc1ccc2nc(-c3ccccc3)cn2c1
The “hERG current change (%, negative = inhibition) at 10uM” value of the first is higher: 18.9% for the first, 12.9% for the second.

First: O=C(Nc1ccc(Oc2cccc(C(F)(F)F)c2)nc1)c1ccco1
Second: Cc1ccc(NC(=O)Nc2c(Cl)cccc2Cl)cn1
The “hERG current change (%, negative = inhibition) at 10uM” value of the first is lower: 13.5% for the first, 14% for the second.

Going from `Cc1ccc(CSc2nc3nc(C)cc(C)n3n2)cc1` to `CCOC(=O)c1nn(-c2ccc(C)cc2)c(=O)cc1OCC(=O)Nc1cc(C)ccc1OC`, the “hERG current change (%, negative = inhibition) at 10uM” value rises from -9.77% to -2.12%.

Going from `CCC(C(=O)N1CCCC1)n1nc(C)c2c(C)n(-c3ccccc3)nc2c1=O` (centres unmarked) to `COC(=O)c1c(NC(=O)CN2CCN(c3ccccc3)CC2)c2c(C)cccc2n1C`, the “hERG current change (%, negative = inhibition) at 10uM” value falls from -4.28% to -8.56%.

Compared with `COc1ccc(CNC(=O)C2CCC(=O)N(CC3CCCCC3)C2)cc1` (centres unmarked), `COc1ccc(CNC(=O)C2CCCN(S(=O)(=O)c3cccc4nsnc34)C2)cc1` (centres unmarked) is lower in “hERG current change (%, negative = inhibition) at 10uM” value: -5.93% for the first, -10.2% for the second.

Compared with `COc1ccc(C(=O)CSc2ncnc3nc[nH]c23)cc1`, `COc1ccc(OCC(=O)NC2CCCc3ccccc32)cc1` (centres unmarked) is higher in “hERG current change (%, negative = inhibition) at 10uM” value: 4.35% for the first, 10.9% for the second.

Going from `CCC(C)NC(=O)C1(NC(=O)Nc2ccccc2)CCCCC1` (centres unmarked) to `COc1ccc(NC(=O)[C@H](NC(=O)[C@@H]2Cc3ccccc3CN2)c2ccccc2)cc1`, the “hERG current change (%, negative = inhibition) at 10uM” value falls from 23% to -50.3%.

First: CN(C)c1ccc(N=Nc2ccc(C(=O)O)cc2)cc1
Second: CCOC(=O)c1c(C)c(C(=O)Nc2ccc(N(C)C)cc2)c(C)n1CC
The “hERG current change (%, negative = inhibition) at 10uM” value of the first is higher: 9.66% for the first, -1.83% for the second.

First: CCN(CC)S(=O)(=O)c1ccc(C)c(NC(=S)NNC(=O)C2CC2)c1
Second: CCOC(=O)C1=C(COC(=O)c2cc(S(=O)(=O)N(C)C)ccc2C)NC(=O)NC1C (centres unmarked)
The “hERG current change (%, negative = inhibition) at 10uM” value of the first is higher: 11.1% for the first, -21.3% for the second.

First: Cn1cnc2c(N/N=C/c3cccs3)ncnc21
Second: Cc1[nH]c2ccccc2c1/C=N/Nc1nncn1N.Cl
The “hERG current change (%, negative = inhibition) at 10uM” value of the first is higher: 15.5% for the first, 10% for the second.

Compared with `CC1CCN(C(=O)CCc2ccc(Oc3cc([N+](=O)[O-])cc([N+](=O)[O-])c3)cc2)CC1`, `COc1cc2c(cc1OC)C(c1ccc([N+](=O)[O-])cc1)N(C(C)=O)CC2` (centres unmarked) is higher in “hERG current change (%, negative = inhibition) at 10uM” value: -25.9% for the first, -4.99% for the second.

Compared with `Cc1nn(C)cc1/C=C/C(=O)c1cccs1`, `C=CCn1c(C(C)NC(=O)c2cccs2)n[nH]c1=S` (centres unmarked) is higher in “hERG current change (%, negative = inhibition) at 10uM” value: -12.3% for the first, 5.32% for the second.

Going from `Cc1nc(-c2ccccc2)sc1C1(C)CC(c2cccc([N+](=O)[O-])c2)=NO1` (centres unmarked) to `Cc1ccccc1C(=O)NCCNc1ccc([N+](=O)[O-])cc1`, the “hERG current change (%, negative = inhibition) at 10uM” value falls from 13.4% to -10.1%.

Going from `C=CCn1c(SCC(=O)Nc2sccc2C(N)=O)nc2sc(CC)cc2c1=O` to `CCOC(=O)Cc1csc(SCC(=O)Nc2cc(C)ccc2OC)n1`, the “hERG current change (%, negative = inhibition) at 10uM” value rises from -1.95% to 21.3%.

Going from `Cc1nc(SCC(=O)NC2CCS(=O)(=O)C2)c2c(C)c(C)sc2n1` (centres unmarked) to `Cc1cc(=O)n2nc(N3CCCC(C(=O)N4CCN(C)CC4)C3)sc2n1` (centres unmarked), the “hERG current change (%, negative = inhibition) at 10uM” value falls from 6.15% to -7.39%.

Going from `O=C(O)c1nn(CC(=O)N2CCN(c3ncc(C(F)(F)F)cc3Cl)CC2)c(=O)c2ccccc12` to `O=C(Nc1ccc(Cl)c(C(F)(F)F)c1)[C@@H]1CC=C[C@@H]2CCN(C3CC3)C(=O)[C@@H]21`, the “hERG current change (%, negative = inhibition) at 10uM” value rises from -18.9% to -5.36%.

Compared with `CCOc1ccc(NC(=O)CCc2nnc3ccc(N4CCC5(CC4)OCCO5)nn23)cc1`, `COc1ccc(S(=O)(=O)N2CCOC2CNC(=O)C(=O)NCc2ccco2)cc1` (centres unmarked) is lower in “hERG current change (%, negative = inhibition) at 10uM” value: 5.36% for the first, -17.8% for the second.

Compared with `Cc1cc(C)n(-c2ccc(C(=O)NC3CCCCC3)cc2)n1`, `COc1ccc(C(C(=O)NC2CCCC2)N(C(=O)c2snc(C(N)=O)c2N)c2cc(C)ccc2OC)cc1OC` (centres unmarked) is lower in “hERG current change (%, negative = inhibition) at 10uM” value: 12.7% for the first, -2.45% for the second.

First: CCOC(=O)NCC(C)(C)CNC(=O)OCC
Second: Cn1cc(C(=O)OCC2CCN(CCNS(C)(=O)=O)CC2)c2ccccc21
The “hERG current change (%, negative = inhibition) at 10uM” value of the first is higher: 11.4% for the first, -37.2% for the second.

Going from `C[C@@H]1C2C[C@@]34COC(=O)C3=CC=C[C@H]4[C@@]13C[C@H](c1ccoc1)O[C@@H]3O2` to `CC1(C)CC2CC(C)(CN2C(=O)c2cc(-c3ccccc3O)on2)C1` (centres unmarked), the “hERG current change (%, negative = inhibition) at 10uM” value rises from -34.2% to 12.7%.

Compared with `COc1cc(C2NC(=O)CS2)cc(OC)c1OC` (centres unmarked), `O=C1CC(N2CCC(c3nc4ccccc4[nH]3)CC2)C(=O)N1c1ccccc1F` (centres unmarked) is lower in “hERG current change (%, negative = inhibition) at 10uM” value: -2.54% for the first, -6.91% for the second.

Compared with `CC1(C)Cc2c(C#N)c(NCCN3CCOCC3)nc(-c3ccco3)c2CO1`, `O=C(NCc1ccccn1)Nc1cccc(Cl)c1Cl` is higher in “hERG current change (%, negative = inhibition) at 10uM” value: -6.23% for the first, 9.25% for the second.
